This note sets out measurements from PubChem BioAssay AID1346428 (National Center for Advancing Translational Sciences (NCATS), 2018).

Values joined by “and” are separate entries in the source; they are usually repeats but may differ in a detail not shown here. Equal entries are not always repeated. About 1,200 (2.5%) of roughly 48,000 compounds were called active. Not shown: some 2% with an inconclusive outcome.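 Rule for the calls: active = activation of at least 60% and not above a set upper limit (about 1 call in 100 departs from these limits); inconclusive = activation of 40% to 60%, or above that upper limit; inactive = activation under 40%.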 The list shows a part of the results.

This experiment deals with Probable G-protein coupled receptor 32 (Homo sapiens) (UniProt O75388). The experiment can be described thus: qHTS for Agonists of Human Resolvin D1 Receptor DRV1. Note: 0% is about no effect. Conditions: CHO-K1 GPR32 beta-arrestin PathHunter luminescence, 90 min; at 76.9 µM; active compounds read high; zero percent set by DMSO-only wells. The essentials: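 Agonism was scored as beta-arrestin recruitment to ProLink-fused GPR32 in stably transfected CHO-K1 cells, giving a chemiluminescent beta-Gal signal; compounds were incubated 90 min at 37 °C.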
Chain of UniProt O75388 (O75388 whole entry, looked up, the tested form may be a part): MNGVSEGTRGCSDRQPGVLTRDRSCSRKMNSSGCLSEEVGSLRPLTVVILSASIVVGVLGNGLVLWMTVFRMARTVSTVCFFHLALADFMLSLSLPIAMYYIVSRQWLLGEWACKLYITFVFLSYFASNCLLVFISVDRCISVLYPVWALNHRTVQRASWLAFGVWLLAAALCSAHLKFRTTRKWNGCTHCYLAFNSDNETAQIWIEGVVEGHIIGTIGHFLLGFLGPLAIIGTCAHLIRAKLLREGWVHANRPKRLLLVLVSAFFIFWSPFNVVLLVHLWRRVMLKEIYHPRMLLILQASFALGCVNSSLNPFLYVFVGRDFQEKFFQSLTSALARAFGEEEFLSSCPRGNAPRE
Turning to `O=C(O)CCc1ccc(-c2ccc(Br)cc2)n1-c1ccccc1O`, the activation is inactive: -13.7%.

`CCOC(=O)C1CCN(c2cc3c(cc2NC(=O)c2ccccc2Cl)n(C)c(=O)n3C)CC1`: the activation was inactive: -32.5%.

Take `CCOc1ccc2nc(N3CCCC(C(=O)NCCc4ccc(OC)cc4OC)C3)sc2c1` (stereo not drawn): the activation is inactive: -2.16%.

Turning to `CCOc1ccc(N2CC(c3nc4ccccc4n3CCOc3ccc(OC)cc3)CC2=O)cc1` (stereo not drawn), the activation is inactive: -9.22%.

For the compound `CC(C)Cc1nn2cc(-c3cccc(Br)c3)nc2s1`, the activation is inactive: -19.7%.

For the compound `CCCCN(CC)CCNC(=O)Cn1cnc2sc(C)c(S(=O)(=O)N3CCN(c4ccccc4OC)CC3)c2c1=O`, the activation was inactive: 6.13%.

For the compound `CCOc1cccc2sc(N(Cc3cccnc3)C(C)=O)nc12`, the activation was inactive: -8.17%.

On to `Cc1cc2nc(-c3ccc(NC(=O)c4ccc(OCC(C)C)cc4)cc3)oc2cc1C`, for which the activation was inactive: -12.2%.

On to `O=C(Nc1ccc(F)c(Cl)c1)c1cc(S(=O)(=O)NCc2ccc3c(c2)OCO3)ccc1F`, for which the activation was inactive: -11.1%.

Regarding `O=C(NCCc1ccccc1)c1ccc(CSc2nc3cccnc3n2Cc2ccccc2)cc1`, the activation was inactive: -0.928%.

As to `CC(NC(=O)CCc1cn(Cc2ccccc2Cl)c2ccccc12)c1ccccc1` (stereo not drawn), the activation is inactive: -31.7%.

In the case of `Cc1c(NC(=O)Nc2cccc(C(F)(F)F)c2)sc2nc3n(c(=O)c12)CCC(C)CC3` (stereo not drawn), the activation is inactive: 6.82%.

As to `COc1ccc(/C=C/c2nc(C#N)c(N3CCC(C(N)=O)CC3)o2)cc1OC`, the activation was inactive: -8.77%.

As for `Cc1ccc(-c2nc(CS(=O)(=O)CC(=O)NC(C)CCc3ccccc3)c(C)o2)cc1` (stereo not drawn), the activation is inactive: 4.41%.

For the compound `CC(C)CN(c1ccccc1)S(=O)(=O)c1nnc(NC(=O)C2CCCCC2)s1`, the activation is inactive: -20.9%.

For `O=C(NCCO)C(=O)NCC(c1ccc2c(c1)OCO2)N1CCOCC1` (stereo not drawn), the activation was inactive: -5.56%.

In the case of `CN1CC(O)C(O)C(O)C1CO` (stereo not drawn), the activation is inactive: 2.08%.

With `CCOC(=O)c1nnc2c(-c3ccc(Cl)cc3)c(C)nn2c1N`, the activation is inactive: -8.05%.

For `CCc1ccccc1NC(=O)Cn1nnc(C(=O)NCc2ccco2)c1N`, the activation was inactive: -4.54%.

Take `O=C(CCS(=O)(=O)c1ccccc1)N(Cc1cccnc1)c1nc2c(F)cccc2s1`: the activation is inactive: -0.24%.

In the case of `COc1ccc(C(CC(=O)Nc2ccccn2)N2Cc3ccccc3C2=O)cc1OC` (stereo not drawn), the activation was inactive: -7.78%.

In the case of `CCOC(=O)C1=C(CN(CC)Cc2ccccc2)NC(=O)NC1c1ccc(OC)cc1` (stereo not drawn), the activation was inactive: -15.9%.

Consider `COC(=O)c1c(-c2ccc(Cl)cc2)noc1N1CCN(c2ccccc2F)CC1`, for which the activation is inactive: 7.94%.

With `CCCCNC(=O)c1ccc2c(c1)NC(=O)C(C(C)C)N2` (stereo not drawn), the activation is inactive: -1.45%.

With `COc1ccc2c(c1)c1c(c(=O)n(-c3ccc(F)c(Cl)c3)c(=O)n1Cc1ccccc1F)n2C`, the activation was inactive: -3.86%.

On to `COc1ccccc1NC(=O)C(=O)c1cc(C)n(-c2cc(C)cc(C)c2)c1C`, for which the activation is inactive: -7.59%.

Regarding `N#Cc1c(-n2ncnc2-c2cccc(Cl)c2)sc2c1CCCCC2`, the activation was inactive: -6.59%.

As to `O=C1CN(C(=O)c2cccc(Br)c2)C(c2ccccc2)c2cc(Cl)ccc2N1` (stereo not drawn), the activation was inactive: -14.3%.

For the compound `COc1cccc(C(=O)Nc2nc(-c3nnn(-c4cc(C)ccc4C)c3C)ns2)c1`, the activation was inactive: 31.4%.

With `CCOc1cccc(-c2nc3ccccc3c(=O)o2)c1`, the activation was active: 80.2%.

In the case of `COc1ccc(Cl)cc1NC(=O)C(=O)NCc1ccc(Cl)cc1`, the activation is inactive: -7.5%.

Regarding `Cc1cc(C)c2oc(C(=O)NCCc3ccc(S(N)(=O)=O)cc3)cc(=O)c2c1`, the activation was inactive: -15.4%.

Consider `CC(C)(C)c1ccc(C(=O)NC2=NC(c3cccc(F)c3)CC(=O)N2)cc1` (stereo not drawn), for which the activation is inactive: -1.11%.

For the compound `O=C1CC(c2ccccc2)Cc2[nH]c(=O)c(-c3nc(-c4ccc(Cl)c(Cl)c4)cs3)cc21` (stereo not drawn), the activation was inactive: 45.5%.

As for `COC(=O)C1=C(C)NC(C)=C(C(=O)OC(C)(C)CN(C)CCC(c2ccccc2)c2ccccc2)C1c1cccc([N+](=O)[O-])c1` (stereo not drawn), the activation was inactive: 13% and inactive: -47.7%.

Turning to `Cc1ccc(NC(=O)N2CCN(C(=O)c3nsc4ccccc34)CC2)cc1C`, the activation was inactive: 1.73%.

Regarding `COCCNS(=O)(=O)c1cc(-c2nn3c(C)nnc3c3ccccc23)ccc1C`, the activation was inactive: -29.1%.

In the case of `O=C(CNS(=O)(=O)c1ccc(Br)s1)N1CCN(c2ccc(F)cc2)CC1`, the activation is inactive: 9.68%.

With `C[C@]12CCC(=O)C=C1CC[C@@H]1[C@@H]2CC[C@@]2(C)[C@H]1CC[C@]2(O)C(=O)CO`, the activation is inactive: 7.75% and inactive: -19.4%.

Consider `CCS(=O)(=O)NCCc1sc2nc(-c3ccc(OC)cc3)nn2c1C`, for which the activation was inactive: 0.775%.

With `O=C(O)/C=C/C(O)c1ccc(Cl)cc1` (stereo not drawn), the activation was inactive: 2.31%.

Consider `Cc1cccc(CCn2c(=O)c3ccccc3n(Cc3ccccc3C)c2=O)c1`, for which the activation is inactive: -3.22%.

With `Cc1ccc(C(=O)c2sc(Nc3ccc(F)cc3)c(C#N)c2N)cc1`, the activation is active: 85.9%.

With `COc1cccc(NC(=O)CN2C=NS(=O)(=O)c3ccccc32)c1`, the activation is inactive: -11.6%.

Consider `COc1cccc(-c2nc3c(c(SCC(=O)Nc4cccc(C)c4C)n2)Cc2c(CO)cnc(C)c2O3)c1`, for which the activation was inactive: 4.28%.

`Cc1cccn2c(=O)cc(COc3ccc(NC(=O)COc4ccc(F)cc4)cc3)nc12`: the activation is inactive: -1.08%.

Turning to `CCOc1ccccc1NC(=O)N1CC(C)Oc2ccc(Cl)cc21` (stereo not drawn), the activation was inactive: -38.4%.

On to `CCOC(=O)c1cnc(NCc2ccc(OC)cc2OC)c2ccccc12`, for which the activation was inactive: -26.4%.

Turning to `Cc1ccc(OC(=O)CSc2nnc(-c3ccc4c(c3)OCO4)o2)c(C)c1`, the activation was inactive: -16.3%.

`COc1ccc2c(c1)c1c(c(=O)n(Cc3ccccc3)c(=O)n1CC(=O)Nc1ccccc1F)n2C`: the activation is inactive: -1.67%.

Turning to `FC(F)(F)c1cccc(N2CCN(c3nc4ccccc4n4cnnc34)CC2)c1`, the activation is inactive: 0.729%.

With `COc1ccc(-n2c(SC)nc3sc4c(c3c2=O)CCN(C(C)=O)C4)cc1`, the activation is inactive: -6.36%.

On to `c1ccc(-c2ccc(C(c3ccccc3)n3ccnc3)cc2)cc1` (stereo not drawn), for which the activation was inactive: -95.1%.

Take `Cc1ccc(NC(=O)CSc2nnc(-c3cc4occc4n3C)n2-c2ccccc2C)c(C)c1`: the activation was inactive: -21.1%.

As for `COc1ccc(CNC(=O)C2CCN(C(=O)c3cnn(-c4ccccc4)c3-n3cccc3)CC2)cc1`, the activation is inactive: 0%.

Consider `COC(=O)c1ccccc1NC(=O)CSc1n[nH]c(C)n1`, for which the activation is inactive: 6.43%.

`Cc1ccn2c(=O)cc(COc3ccc(NC(=O)C(C)(C)C)cc3)nc2c1`: the activation was inactive: -1.54%.

For the compound `Cc1ccc2c(c1)N(C(=O)Nc1ccc(Br)cc1F)CCO2`, the activation is inactive: -17.1%.

Take `O=c1c2sc3ccccc3c2n(Cc2cccc(C(F)(F)F)c2)c(=O)n1-c1ccccc1`: the activation is inactive: -12.9%.

Consider `CC(C)Oc1ccc(CNC(=O)CN2C(=O)c3cccnc3Oc3ccc(Cl)cc32)cc1`, for which the activation was inactive: -9.12%.

Turning to `CCS(=O)(=O)N1CCc2cc(C(=O)NC(C)c3ccccc3)ccc21` (stereo not drawn), the activation is inactive: 1.12%.

Regarding `COc1ccccc1N1CCN(CCCNc2c(C)c(=O)n(C)c(=O)n2C)CC1`, the activation was inactive: 1.02%.

Regarding `CCCCCn1c(=N)c(S(=O)(=O)c2ccc(C)cc2)cc2c(=O)n3cc(C)ccc3nc21`, the activation is inactive: -6.33%.

Consider `COc1ccc(S(=O)(=O)c2cc3cc(C(C)(C)C)cc(O)c3oc2=O)cc1`, for which the activation is inactive: -23.1%.

With `Cn1c(COc2ccccc2C(C)(C)C)nc2ccccc21`, the activation is inactive: -17.5%.

With `Cn1c2c(c(=O)n(C)c1=O)C(c1ccccc1C(F)(F)F)CC(=O)N2` (stereo not drawn), the activation was inactive: -1.31%.

`CCOC(=O)c1ccc(CN(Cc2ccc(F)cc2)S(=O)(=O)c2ccc(F)c(C(=O)Nc3ccccc3C(F)(F)F)c2)cc1`: the activation was inactive: -17.5%.

Regarding `COC(=O)c1ccc(NS(=O)(=O)c2ccc3c(c2)n(C)c(=O)c(=O)n3C)cc1`, the activation was inactive: -10%.

For `CC(C)(CC(=O)NCc1ccc(Cl)cc1Cl)CC1=NS(=O)(=O)c2ccccc2N1`, the activation is active: 110%.

For the compound `Cc1ccc(C(=O)N2CCN(c3cccc(Cl)c3)CC2)cc1-n1c(C)nc2cccnc21`, the activation is inactive: 0.0762%.

Consider `CCNC(=O)CC1C(=O)N(c2ccc(F)cc2)C(=O)N1Cc1ccc(OC)c(OC)c1` (stereo not drawn), for which the activation is inactive: -2.08%.

In the case of `COc1cc(Cl)c(C)cc1NC(=O)C1CCCN(c2ncnc3onc(-c4ccc(F)cc4)c23)C1` (stereo not drawn), the activation is inactive: -16.6%.

As for `CCc1ccccc1N(CC)C(=O)C(=O)Nc1ccc2nc3n(c(=O)c2c1)CCCCC3`, the activation is inactive: 32.2%.

Turning to `O=C(c1ccc2c(c1)N(Cc1cccc(Cl)c1)C(=O)c1ccccc1S2(=O)=O)N1CCc2ccccc21`, the activation was inactive: -14.9%.

For the compound `O=C(NCc1ccc(Cl)cc1)C(=O)NCC(c1ccc2c(c1)OCO2)N1CCOCC1` (stereo not drawn), the activation is inactive: -13.7%.

Take `COc1cc2ccccc2cc1C(=O)N1CCN(c2nc3c(F)cccc3s2)CC1`: the activation was inactive: -17.4%.

As to `COCCN1C(=O)N(c2cccc(OC)c2)C(=O)C1CC(=O)Nc1ccccc1` (stereo not drawn), the activation was inactive: -3.51%.

Turning to `CCCCc1nn2c(=O)cc(COC(=O)c3cccc(NC(=O)c4cccs4)c3)nc2s1`, the activation was inactive: -0.444%.

Consider `CC(=O)c1ccc(NC(=O)c2cc3c([nH]c2=O)CC(c2ccccc2)CC3=O)cc1` (stereo not drawn), for which the activation is inactive: 10.6%.

Consider `CCOc1ccc2c(c1)c(=O)c(C(=O)c1ccccc1)cn2Cc1ccccc1F`, for which the activation is inactive: 10.6%.

For the compound `CN1C(=O)Cc2cc(S(=O)(=O)CCC(=O)Nc3ccc(Cl)cc3)ccc21`, the activation is inactive: 0.01%.

Take `COc1ccc(CCNC(=O)c2cnn(-c3cccc(C)c3)c2C2CCNCC2)cc1OC`: the activation is inactive: -5.86%.

Regarding `O=C(c1ccccc1)N1CCC(c2nc3ccccc3o2)CC1`, the activation was inactive: 6.53%.
